Over roughly 13,000 compounds, “IFI” has its median near 4; the highest 2% begin near 17. This is one part of the list.

The nature of this experiment: GSK_TCMDC: Inhibition Frequency Index (IFI). The number of non-kinase HTS assays where a compound showed > 50 % inhibition, expressed as a percentage of the number of such assays in which the compound was tested (-0 is zero). The class given is functional.
The compound `O=C(NCCCCN1CCC(c2ccc3ccccc3c2O)CC1)c1ccc(-c2ccc(Cl)cc2)cc1` registered an IFI of 15.1%.

`CNCCNCc1ccc(-c2ccc(-c3nc4cccc(C)c4[nH]3)s2)cc1` registered an IFI of 7%.

Consider `N#Cc1cccc(Nc2ncc3c(-c4cccc(NC(=O)Cc5cccc(Cl)c5)c4)c[nH]c3n2)c1`, for which the IFI is 1.53%.

With `Cc1nc(-c2cccc(C(=O)Nc3cnc4ccccc4c3)c2)no1`, the IFI stood at 2.27%.

Compound `CC(Oc1ccc(C(=O)c2ccc(F)cc2)cc1)C(=O)N1CCc2ccccc21` (stereo not drawn) gave an IFI of 1.55%.

Compound `O=C(NCCN1CCCC1)c1cccc(-c2ccc(-c3nc4cc(C(F)(F)F)ccc4[nH]3)cc2)c1` displayed an IFI of 5.31%.

Regarding `CCOc1ccc(-c2nonc2NC(=O)c2ccc(OC(C)C)cc2)cc1OCC`, the IFI was determined as 0%.

In turn, `NS(=O)(=O)c1cccc(Nc2nccc(-c3cnn4ncccc34)n2)c1` showed an IFI of 9.49%.

`O=C(NCCc1ccc(O)cc1)n1c2ccccc2c2ccccc21` showed an IFI of 1.42%.

`Cc1noc(C)c1-c1ccc2c(Nc3ccccc3C(C)(C)C)c(C(=O)NC3CCCC3)cnc2c1` gave an IFI of 13.8%.

For the compound `COc1cc(C(=O)NCCCN2CCN(c3cc(Cl)ccc3OC)CC2)ccc1-c1nc2cc(Cl)c(Cl)cc2[nH]1`, the IFI is -0%.

Take `O=C(N[C@@H](Cc1ccccc1)[C@H](O)CNC1CCOCC1)c1cc(C2CCCC2)cc(N2CCCCS2(=O)=O)c1`: the IFI turned out to be 1.5%.

On to `CS(=O)(=O)c1ccc2c(c1)CCN(CCC1CCC(NC(=O)C(=Cc3ccc(Cl)cc3Cl)c3ccc(-c4ccccc4)cc3)CC1)CC2` (stereo not drawn), for which the IFI was 5.48%.

The compound `CCc1cc2c(cc1OCCN(C)C)N(C(=O)Nc1ccc(-c3ccncc3)c(Cl)c1)CC2` yielded an IFI of 5.63%.

For `CCn1c(Sc2ccc([N+](=O)[O-])c(C#N)c2)nnc1-c1ccc(Cl)cc1`, the IFI turned out to be 3.4%.

In the case of `O=C(C1CCN(c2nnnn2-c2ccccc2)CC1)N1CCc2ccccc2C1`, the IFI stood at 0.71%.

For `CCCCCCN1CCCN(Cc2ccc(C(=O)Nc3ccc(C(C)(C)C)cc3)cc2)CC1`, the IFI was found to be 15.5%.

For the compound `CC(C)(C)c1ccc2oc(=O)n(C3CCN(C(=O)c4ccc([N+](=O)[O-])o4)CC3)c2c1`, the IFI came to 2.38%.

For `Cc1noc(C)c1-c1ccc2c(Nc3cccc4c3-c3ccccc3C4=O)c(C(=O)NCc3ccccc3I)cnc2c1`, the IFI stood at 0%.

For the compound `Cc1ccc(-c2csc(C)n2)c(C)c1`, the IFI turned out to be 0.72%.

`CN1CCC(c2cc3c(cc2Br)CCN3C(=O)Nc2ccc(-c3ccncc3)c(Cl)c2)CC1` had an IFI of 4.48%.

With `O=C(Nc1cccc(F)c1)N(Cc1ccc(-c2cccc(CN3CCNCC3)c2)cc1)C1CCN(Cc2ccccc2)CC1`, the IFI was 3.7%.

Regarding `c1ccc(-c2nnc(-c3ccccn3)nc2NC2CCCCC2)cc1`, the IFI stood at 8.11%.

As to `O=C(NC1CCCCN(Cc2ccccc2O)C1)c1ccc(-c2ccccc2)cc1` (stereo not drawn), the IFI turned out to be 4.08%.

Compound `O=C1CCCC1Sc1nc2ccccc2c(=O)n1-c1ccc(Cl)c(Cl)c1` (stereo not drawn) came in with an IFI of 2.04%.

Turning to `CC1(C)CN(CCC2CCC(NC(=O)/C=C/c3ccccc3F)CC2)Cc2ccc(C#N)cc21` (stereo not drawn), the IFI worked out at 4.38%.

`CN1CCCN(Cc2cccc(-c3ccc(NC(=O)c4cccc(Cl)c4)cc3)c2)CC1` yielded an IFI of 5.71%.

With `Fc1ccc2[nH]c(-c3ccc(-c4cccc(CN5CCN(c6ccncc6)CC5)c4)cc3)nc2c1`, the IFI worked out at 18.1%.

As for `O=C(Nc1cccc(CN2CCN(Cc3ccc(O)cc3)CC2)c1)c1ccc(Cl)c(Cl)c1`, the IFI amounted to 7.38%.

On to `COc1ccc(C=NN=c2cc(C)[nH]c3ccccc23)c2ccccc12`, for which the IFI was found to be 3.57%.

As for `COc1ccc(O)c(C(=O)NCCc2ccc(OC)c(-c3ccc(C(C)(C)C)cc3)c2)c1`, the IFI came out at 1.46%.

`COc1cc(NC(=O)Nc2ccnc3ccccc23)cc(OC)c1` displayed an IFI of 2.34%.

Take `COc1ccc2nccc([C@@H](O)CN3CCC(NCc4cc5ccccc5o4)CC3)c2c1`: the IFI turned out to be 3.45%.

With `COc1ccc(Br)cc1/C=C/C(=O)Nc1cccc(C2CCCN(C)C2)c1` (stereo not drawn), the IFI was 3.45%.

On to `CN(Cc1ccc(C#N)cc1)C1CCN(c2cc(NC(=O)c3ccc(F)cc3)ccn2)CC1`, for which the IFI was -0%.

As to `CN1CCN(c2ccc3nccc(CCN4CCC(NCc5ccc6c(n5)NC(=O)CO6)CC4)c3n2)CC1`, the IFI worked out at 3.97%.

The compound `Fc1cc(Cl)ccc1Nc1ccnc2cc(-c3ccc(CN4CCOCC4)o3)ccc12` registered an IFI of 10.8%.

As for `O=C(Nc1ccc(F)c([N+](=O)[O-])c1)Nc1cc(C(F)(F)F)ccc1Cl`, the IFI was 4.17%.

`CCN(CC)CCCC(C)Nc1c2cc(OC)ccc2nc2cc(Cl)c([N+](=O)[O-])cc12` (stereo not drawn) showed an IFI of 0.73%.

In turn, `COc1cc(Cc2cnc(N)nc2N)cc(OC(C)C)c1OC` showed an IFI of -0%.

On to `CC(C)CCNCc1ccc(OCc2ccccc2COc2ccc(CNCCC(C)C)cc2I)c(I)c1`, for which the IFI was 11.2%.

Compound `Cn1nc(-c2ccccc2F)c2cc(C(=O)Nc3cccnc3)sc21` displayed an IFI of -0%.

`CCN(CC)CCCN(CCCN(CC)CC)c1cc(C)nc(Nc2ccc(Cl)cc2)n1` displayed an IFI of 4.41%.

For the compound `CCCc1cc(N2CCC(N3CCCC3)CC2)nc(Nc2ccc(OC)cc2)n1`, the IFI came to 4.76%.

`COc1cc(C)ccc1S(=O)(=O)N1CCCCC(c2ccc(C(F)(F)F)cc2)=N1` registered an IFI of 0.73%.

For `COc1ccc(N2CCN(CCc3ccc(NC(=O)c4ccc([N+](=O)[O-])cc4)cc3)CC2)c(OC)c1`, the IFI was 3.54%.

As to `CC(C)(C)c1ccc(NC(=O)N[C@@H]2CCN(c3ccnc4ccccc34)C2)cc1`, the IFI was determined as 7.97%.

`CCC(=O)OC(CCN(CC)CC)(c1ccccc1)c1ccccc1` returned an IFI of 1.41%.

Turning to `Cc1ccc(F)cc1S(=O)(=O)Nc1ccc(CCN2CCC(N3CCCCC3)CC2)cc1`, the IFI worked out at 7.94%.

Regarding `CCOC(=O)NC1=NC(=N)N(OCc2ccc(Cl)c(Cl)c2)C(C)(C)N1`, the IFI turned out to be 0.72%.

Regarding `COc1ccc(-n2ncc(C(=O)N3CCC4(C3)C(=O)N(c3ccccc3)c3ccccc34)c2C)cc1` (stereo not drawn), the IFI came to 5.41%.

`CC(=O)Oc1cc(OCc2ccccc2)c(OC(C)=O)c(OCc2ccccc2)c1`: the IFI amounted to 0.71%.

`COc1ccc2nccc([C@@H](O)CN3CCC(NC(=O)/C=C/c4cccc(C)c4)CC3)c2c1` had an IFI of 0.75%.

Take `CCOc1cc(CNCCCCCCNCc2cc(OCC)c(OCC)c3ccccc23)c2ccccc2c1OCC`: the IFI is 18.8%.

The compound `O=C(/C=C/c1ccc(Cl)cc1)NCCCCCN1CCCC(C(=O)Nc2ccc(F)c(Cl)c2)C1` (stereo not drawn) showed an IFI of 5.77%.

`N=C(N)c1ccc(C=Cc2ccc(C(=N)N)cc2O)cc1` returned an IFI of -0%.

On to `OCCCCCCNc1nc(NCc2ccccc2-c2ccc(C(F)(F)F)cc2)nc(N2CCNCC2)n1`, for which the IFI worked out at 3.7%.

Compound `O=C(Nc1cccc(F)c1)N(Cc1ccc(-c2ccc(CN3CCNCC3)cc2)cc1)C1CCN(Cc2ccccc2)CC1` displayed an IFI of 6.25%.

Turning to `COc1cc(C2CCN(CCCCNC(=O)c3ccc(NC(=O)c4ccc(Cl)c(Cl)c4)cc3)CC2)ccc1OC(C)C`, the IFI stood at 8.85%.

For `c1ccc(Oc2ccc(Nc3ccnc(Nc4ccc(OCCN5CCCCC5)cc4)n3)cc2)cc1`, the IFI came out at 5.67%.

Turning to `CN(Cc1ccc(-c2ccc(C(F)(F)F)cc2)cc1)C(=O)Cn1c(CCc2cccc(F)c2F)cc(=O)c2ccc(OCC3CCCN3C)cc21` (stereo not drawn), the IFI is 5.15%.

In turn, `Cc1cc(N[C@@H](Cc2ccccc2)C(=O)NCc2cccs2)nc(NCCc2ccc(F)cc2)n1` returned an IFI of 11.6%.

`O=C(Nc1ccc(C(=O)Oc2cccc3ccccc23)cc1)N[C@@H](Cc1ccc(O)cc1)C(=O)NC1CCN(Cc2ccc(O)cc2)C1` (stereo partly drawn) showed an IFI of 8.11%.

For the compound `CCOC(=O)NCC(=O)Nc1cccc(-c2cccc(-c3nc4cccc(C)c4[nH]3)c2)c1`, the IFI was 2.88%.

Compound `O=C(/C=C/c1ccc(Cl)c(Cl)c1)NCCCCCN1CCC(CCNC(=O)/C=C/c2ccc(Cl)c(Cl)c2)CC1` returned an IFI of 11.2%.

In turn, `NCC1CCCN1Cc1ccc(-c2cccc(-c3nc4cc(F)ccc4[nH]3)c2)cc1` (stereo not drawn) gave an IFI of 7.69%.

`CCN(CC)CCON=Cc1cc(C)c2[nH]c3ccc(OCc4ccccc4)cc3c2c1C` displayed an IFI of 3.57%.

Regarding `CN(C)Cc1cccc(-c2cnc(N)c(-c3nc4cc(S(C)(=O)=O)ccc4[nH]3)c2)c1`, the IFI came out at 7.41%.

`N=C(NCc1ccccc1)Nc1nc(-c2ccc(OCCCn3ccnc3)cc2)cs1` yielded an IFI of 2.24%.

With `Cc1nc(Nc2ccc(C)c(Cl)c2)c2c(C)noc2n1`, the IFI is 2.86%.

With `O=C(Nc1cccc(C(F)(F)F)c1)NC1CCN(c2ccnc3cc(Cl)ccc23)C1` (stereo not drawn), the IFI came to 7.35%.

In turn, `O=C(Cc1ccccc1)NC(CCN1CCC(NC(=O)c2ccc(Cl)cc2)CC1)c1ccc(Cl)c(Cl)c1` (stereo not drawn) had an IFI of 8.33%.

In turn, `Nc1nc(N)c2cc(NC(=O)c3ccc(Cl)c(Cl)c3)ccc2n1` displayed an IFI of 15.9%.

For the compound `CCOC(=O)NC1=NC(C)(C)N(OCCCOc2ccc(C)cc2C)C(NC(=O)OCC)=N1`, the IFI was 1.5%.

`O=C(/C=C/c1ccc(Cl)c(Cl)c1)NCCCCCN1CCCN(C(=O)Nc2cc(Cl)nc(Cl)c2)CC1` had an IFI of 4.76%.

`CC(C)CCN(Cc1cncn1Cc1cccc(C(F)(F)F)c1)C(=O)c1cncc(-c2ccccc2)c1` showed an IFI of 5.19%.

For the compound `COc1ccc(NC(=O)[C@H](Cc2ccccc2)Nc2cc(C)nc(NCCN3CCCC3)n2)cc1`, the IFI amounted to 4.76%.

In turn, `COc1ccc2c(c1)Sc1ccccc1C(N1CCN(CCO)CC1)C2` (stereo not drawn) came in with an IFI of 5.11%.

With `COCCNC(=O)c1ccc(OC2CCN(CC(C)=Cc3ccccc3)CC2)c(Cl)c1`, the IFI was found to be 2.33%.

`CN1CCC(NCc2cccc(-c3nn(C)c4nc(NC5CCCC5)ncc34)c2)CC1`: the IFI worked out at 9.09%.

As for `COc1ccc(Nc2nc(NCc3ccc(-n4ccnc4)cc3)cc(-c3ccc(OC)cc3)n2)cc1`, the IFI is 0%.

For `COC(=O)C(c1ccc(NC(=O)[C@H](CC(C)C)NC(=O)OC(C)(C)C)cc1)c1ccc(NC(=O)[C@H](CC(C)C)NC(=O)OC(C)(C)C)cc1`, the IFI amounted to 0%.

Regarding `COCCNCc1cccc(-c2ccccc2CN(C(=O)c2ccc3c(c2)OCO3)c2ccc(OC)cc2)c1`, the IFI was found to be 1.45%.

In the case of `Cc1cc(Cl)c(S(=O)(=O)N2CCc3ccccc32)cc1OCC(=O)NC1CCCCC1`, the IFI came to 11.7%.

In the case of `CN1CCCC(CN2CCN(Cc3cccc(-c4cccc(-c5nc6ccccc6[nH]5)c4)c3)CC2)C1` (stereo not drawn), the IFI is 7.04%.

Consider `COc1cc(C)nc2ccc(NC(=O)c3cc(C(F)(F)F)cc(C(F)(F)F)c3)cc12`, for which the IFI amounted to 0.7%.

`Fc1ccc(OC2CN(c3nccc(NCc4ccccc4Cl)n3)C2)cc1`: the IFI is 8%.

Compound `Cc1ccccc1C1CCN(C2CCC(NC(=O)/C=C/c3ccc(Cl)cc3)CC2)CC1` (stereo not drawn) yielded an IFI of 16.7%.
